Reference: patent US12049476B2, “Processes for the preparation of soluble salts of inositol phosphates” (SANIFIT THERAPEUTICS, S.A., priority 2020, dated 2024)

Conditions: in water at 50° C. for 3 days

Decomposition by 31P-NMR: no significant decomposition
Compound: O=P([O-])([O-])O[C@H]1[C@H](OP(=O)([O-])[O-])[C@@H](OP(=O)([O-])[O-])[C@H](OP(=O)([O-])[O-])[C@@H](OP(=O)([O-])[O-])[C@H]1OP(=O)([O-])[O-].[Na+].[Na+].[Na+].[Na+].[Na+].[Na+].[Na+].[Na+].[Na+].[Na+].[Na+].[Na+] [Na12IP6, dodecasodium salt of inositol hexaphosphate]
